The results in this text go back to PMC9911399, “Two distinct binding modes provide the RNA-binding protein RbFox with extraordinary sequence specificity”.

Residue numbers refer to the chain shown, from its start. The list shows a part of the results.

B1: GCUCUGG (DNA:RNA)
RNA: GGGAGACCGGAAUUCAGAUUGUCCGCUCUGGUUAAAUCCCGUCGUAGCCACCA
DNA 1: CAATCTGAATTCCGGTCTCCC
DNA 2: TGGTGGCTACGACGGGATT
B2: GGGACGA (DNA:RNA)
RNA: B1 RNA with C26G, U27G, C28A, U29C, G31A
DNA 1: CAATCTGAATTCCGGTCTCCC
DNA 2: TGGTGGCTACGACGGGATT
B3: ACUUCAG (DNA:RNA)
RNA: B1 RNA with G25A, C28U, U29C, G30A
DNA 1: CAATCTGAATTCCGGTCTCCC
DNA 2: TGGTGGCTACGACGGGATT
B4: AGCGCGG (DNA:RNA)
RNA: B1 RNA with G25A, C26G, U27C, C28G, U29C
DNA 1: CAATCTGAATTCCGGTCTCCC
DNA 2: TGGTGGCTACGACGGGATT
B5: GAGAUCU (DNA:RNA)
RNA: B1 RNA with C26A, U27G, C28A, G30C, G31U
DNA 1: CAATCTGAATTCCGGTCTCCC
DNA 2: TGGTGGCTACGACGGGATT
B6: AAUUAAG (DNA:RNA)
RNA: B1 RNA with G25A, C26A, C28U, U29A, G30A
DNA 1: CAATCTGAATTCCGGTCTCCC
DNA 2: TGGTGGCTACGACGGGATT
B7: GCGUAUU (DNA:RNA)
RNA: B1 RNA with U27G, C28U, U29A, G30U, G31U
DNA 1: CAATCTGAATTCCGGTCTCCC
DNA 2: TGGTGGCTACGACGGGATT
B8: CCCAAAC (DNA:RNA)
RNA: B1 RNA with G25C, U27C, C28A, U29A, G30A, G31C
DNA 1: CAATCTGAATTCCGGTCTCCC
DNA 2: TGGTGGCTACGACGGGATT
B9: UGUGCGU (DNA:RNA)
RNA: B1 RNA with G25U, C26G, C28G, U29C, G31U
DNA 1: CAATCTGAATTCCGGTCTCCC
DNA 2: TGGTGGCTACGACGGGATT
B10: GAGGGUG (DNA:RNA)
RNA: B1 RNA with C26A, U27G, C28G, U29G, G30U
DNA 1: CAATCTGAATTCCGGTCTCCC
DNA 2: TGGTGGCTACGACGGGATT
B11: AUUGGCC (DNA:RNA)
RNA: B1 RNA with G25A, C26U, C28G, U29G, G30C, G31C
DNA 1: CAATCTGAATTCCGGTCTCCC
DNA 2: TGGTGGCTACGACGGGATT
B12: GAAGUUG (DNA:RNA)
RNA: B1 RNA with C26A, U27A, C28G, G30U
DNA 1: CAATCTGAATTCCGGTCTCCC
DNA 2: TGGTGGCTACGACGGGATT
B13: UUCUCUC (DNA:RNA)
RNA: GGGAGACCGGAAUUCAGAUUGUCCUUCUCUCUUAAAUCCCGUCGUAGCCACCA
DNA 1: CAATCTGAATTCCGGTCTCCC
DNA 2: TGGTGGCTACGACGGGATT
B14: UCCCUGU (DNA:RNA)
RNA: B1 RNA with G25U, U27C, G31U
DNA 1: CAATCTGAATTCCGGTCTCCC
DNA 2: TGGTGGCTACGACGGGATT
B15: UAAAACU (DNA:RNA)
RNA: B13 RNA with U26A, C27A, U28A, C29A, U30C, C31U
DNA 1: CAATCTGAATTCCGGTCTCCC
DNA 2: TGGTGGCTACGACGGGATT
B16: GCCCUUU (DNA:RNA)
RNA: B1 RNA with U27C, G30U, G31U
DNA 1: CAATCTGAATTCCGGTCTCCC
DNA 2: TGGTGGCTACGACGGGATT
B17: UUCGCAG (DNA:RNA)
RNA: B13 RNA with U28G, U30A, C31G
DNA 1: CAATCTGAATTCCGGTCTCCC
DNA 2: TGGTGGCTACGACGGGATT
B18: GUGAAUG (DNA:RNA)
RNA: B1 RNA with C26U, U27G, C28A, U29A, G30U
DNA 1: CAATCTGAATTCCGGTCTCCC
DNA 2: TGGTGGCTACGACGGGATT
B19: CAUUUAA (DNA:RNA)
RNA: B1 RNA with G25C, C26A, C28U, G30A, G31A
DNA 1: CAATCTGAATTCCGGTCTCCC
DNA 2: TGGTGGCTACGACGGGATT
B20: CGUCUAG (DNA:RNA)
RNA: B1 RNA with G25C, C26G, G30A
DNA 1: CAATCTGAATTCCGGTCTCCC
DNA 2: TGGTGGCTACGACGGGATT

In the experiment the target is T1, RBFOX1 RRM RbFoxmut (Fox-RRM*) (Homo sapiens, UniProt Q9NWB1 109-208, R118D;E147R;N151S;E152T).
T1 sequence: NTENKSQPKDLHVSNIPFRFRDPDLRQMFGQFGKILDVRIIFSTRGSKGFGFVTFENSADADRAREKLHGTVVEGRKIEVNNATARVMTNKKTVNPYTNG
Put plainly: EMSA; HiTS-Eq, 1 nM pool, 10 min; buffer printed only for the single-RNA assays: 10 mM Tris pH 7.5, 150 mM NaCl, 3.4 mM EDTA, 0.001% NP-40, 30 C. The settings on record: tags: His6 N-terminal (pET28a); label: 5' 32P. Summed up:
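Purified RbFox RRM, wild type or mutant, was incubated for 10 min in 50 µL with 1 nM of a 5′-radiolabelled RNA pool carrying 7 randomized nucleotides, whose flanks were annealed to DNA oligonucleotides, over a series of increasing protein concentrations. Unbound RNA was resolved on 8% native PAGE, cut out, reverse-transcribed, barcoded by PCR and sequenced on an Illumina HiSeq 2500. Relative association constants were derived from changes in read counts for each RNA species versus the control reaction and normalised to the cognate motif.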
With B1, the binding signal was 0.0884 KA relative to UGCAUGU.

Consider B2, for which the binding signal is 0.129 KA relative to UGCAUGU.

As to B3, the binding signal is 0.119 KA relative to UGCAUGU. On to B4, for which the binding signal was 0.116 KA relative to UGCAUGU. Turning to B5, the binding signal was 0.0437 KA relative to UGCAUGU. Consider B6, for which the binding signal was 0.112 KA relative to UGCAUGU. For B7, the binding signal is 0.115 KA relative to UGCAUGU. For B8 the value was 0.0842 KA relative to UGCAUGU.

As for B9, the binding signal was 0.208 KA relative to UGCAUGU. With B10 the figure was 0.18 KA relative to UGCAUGU. As to B11, the binding signal is 0.272 KA relative to UGCAUGU.

On to B12, for which the binding signal is 0.122 KA relative to UGCAUGU.

B13: the binding signal was 0.0655 KA relative to UGCAUGU. In the case of B14, the binding signal was 0.119 KA relative to UGCAUGU.

B15: the binding signal was 0.0578 KA relative to UGCAUGU. For B16 the value was 0.0862 KA relative to UGCAUGU.

As to B17, the binding signal is 0.0914 KA relative to UGCAUGU. With B18 the figure was 1.45 KA relative to UGCAUGU.

As to B19, the binding signal is 0.141 KA relative to UGCAUGU. With B20 the figure was 0.115 KA relative to UGCAUGU.
